The other results are listed elsewhere or left out.
Tested on: PfHDP1 homeodomain (GST-tagged)
Test: gcPBM binding intensity (ln(normalized median fluorescence intensity)); higher = stronger DNA binding
Method in brief: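 An Agilent 4 × 180k array carrying primer-extended double-stranded 36-bp intergenic genomic probes and negative controls received GST-tagged P. falciparum DNA-binding domains expressed in E. coli, about 25 μg on average, for 1 h. The binding buffer contained 1× PBS, 1% milk, 0.2 mg/ml BSA, 0.5% salmon testes DNA and 0.03% Triton X-100. Binding intensity is the top Masliner-normalised natural-log median intensity across replicate spots of either probe orientation, read after Alexa488 anti-GST antibody staining and a 488 nm scan.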

With CTTTATATATATTGCGTGCACATTTTTTTTTTTTTT as the sequence, how does the “gcPBM binding intensity (ln)” value read?
The value was 9.4.

With “TCAATATATATAAGAAGTACATGTGAATGAAAAAAA [XGTACX_site1674]” as the sequence, how does the “gcPBM binding intensity (ln)” value read?
Its value is 7.29.

With “AATAAATACAAAAATGTACACACATATATATATTTT [CACACA_site9167]” as the sequence, how does the “gcPBM binding intensity (ln)” value read?
The value was 6.71.

For “AACATATAAAAATATGCACACACAGGAATACAAACA [CACACA_site8127]”, which “gcPBM binding intensity (ln)” value is on record?
Its value is 9.18.

How did the “gcPBM binding intensity (ln)” value turn out when “TTCTGTATACGGTGTGCACACAATTAAAAAAAAAAA [CACACA_site1416]” was run?
The value was 10.8.

How did the “gcPBM binding intensity (ln)” value turn out when “TTAAATAACCTCAAGGATAAGAAAAAATTAAAAATT [CACACA_negctrl_site1336]” was run?
The value was 6.17.

Which “gcPBM binding intensity (ln)” value does the source give for “TTTTAAAAAATATAATAATATAAATATTTTATACGT [TGCATGCA_negctrl_site252]” here?
The value was 6.03.

For “AAAAAAAAAAAACATACACACACACTAATATTTATA [CACACA_site8038]”, which “gcPBM binding intensity (ln)” value is on record?
The value was 6.77.

“GACTTTTTCATTTTTAGTACACATATATATTTCCCT [XGTACX_site3511]” was tested. Which “gcPBM binding intensity (ln)” value did it give?
The value was 7.56.

For “ATATATTTTTAATATGCACACAAGAATACATTCACA [CACACA_site914]”, which “gcPBM binding intensity (ln)” value is on record?
The value was 9.51.

How did the “gcPBM binding intensity (ln)” value turn out when “TTAAAAAATCACAACACACACACACCCAAAAAAAAA [CACACA_site1445]” was run?
The value was 6.71.

With “TTTAAAAAAAAAAAAAATTTTTTTTTTTTTTTTTTA [CACACA_negctrl_site1415]” as the sequence, how does the “gcPBM binding intensity (ln)” value read?
The value was 5.68.

“CATATATATATATGAACACACAAAAAGAATATTTCC [CACACA_site1493]” was tested. Which “gcPBM binding intensity (ln)” value did it give?
Its value is 6.67.

Which “gcPBM binding intensity (ln)” value does the source give for “TTCTATGCATTTATAGTGCATGTAAAATATAAGATA [GTGCAC_site9466]” here?
The value was 9.68.

“GTAGAAAGAAAAATTAGTACTTAAATATTATAAAAA [XGTACX_site8458]” was tested. Which “gcPBM binding intensity (ln)” value did it give?
Its value is 6.29.

Which “gcPBM binding intensity (ln)” value does the source give for “AATTATATTTAGTATATGCACACTTTATGTTTGTTA [CACACA_site2025]” here?
The value was 9.36.

“TCTATACCTATTCTTACACACATATGTATTTATATA [CACACA_site4475]” was tested. Which “gcPBM binding intensity (ln)” value did it give?
Its value is 7.27.

Which “gcPBM binding intensity (ln)” value does the source give for “CTTTTTACTTAATACACACACACACCCAAAAAAAAA [CACACA_site948]” here?
Its value is 7.37.

With “CATCAAAATGAAGCATGTACATAATATAAATAAATA [XGTACX_site4647]” as the sequence, how does the “gcPBM binding intensity (ln)” value read?
The value was 6.58.

With “AAAAAATACCAAAGGGGTACTTACACATAATACTTA [XGTACX_site2111]” as the sequence, how does the “gcPBM binding intensity (ln)” value read?
The value was 6.04.

For “ATTGAAGGGAAATATATAATCATATTCAAAATAAAA [CACACA_negctrl_site728]”, which “gcPBM binding intensity (ln)” value is on record?
The value was 6.3.

With “ATTTCTCTATCGTAATGTACAAAAAAAAGGGAAAAG [XGTACX_site1335]” as the sequence, how does the “gcPBM binding intensity (ln)” value read?
Its value is 6.48.

“CTAATCATAAAATATACACACACGGATACATTAAAT [CACACA_site2685]” was tested. Which “gcPBM binding intensity (ln)” value did it give?
The value was 6.98.

With “TTTATACTTTCAAAATGTACATATATATATATATAT [XGTACX_site6241]” as the sequence, how does the “gcPBM binding intensity (ln)” value read?
The value was 9.31.

How did the “gcPBM binding intensity (ln)” value turn out when “TAATATATAATTTTATGTACATAATTATAAACCCAT [XGTACX_site919]” was run?
The value was 6.68.

How did the “gcPBM binding intensity (ln)” value turn out when “GGTATTTTCACATATAGTACACAAAAATAAAATAAA [XGTACX_site2139]” was run?
Its value is 6.68.

For “AAGGAATAAAATTTAGAAGACAATTTTATTTCAGTA [XGTACX_negctrl_site331]”, which “gcPBM binding intensity (ln)” value is on record?
The value was 5.61.

Which “gcPBM binding intensity (ln)” value does the source give for “TTGTATAAAATATGTAGTACAATAATATAACATTTT [XGTACX_site8607]” here?
Its value is 6.36.

How did the “gcPBM binding intensity (ln)” value turn out when “TATGTATATTGAGATTGTACTTGTAATATTAAACAT [XGTACX_site3878]” was run?
The value was 6.34.

With “AATAATAAAAATATTGTGCACTTGTATATTTATTAT [GTGCAC_site9963]” as the sequence, how does the “gcPBM binding intensity (ln)” value read?
Its value is 9.36.

For “TTTTTTTTTTTTTTTTTTTTTTTCTACCTATTTATT [CACACA_negctrl_site94]”, which “gcPBM binding intensity (ln)” value is on record?
The value was 6.62.

Which “gcPBM binding intensity (ln)” value does the source give for “AACAAGTTGCATGGTGCACACATGTATATATATCTA [CACACA_site2548]” here?
Its value is 10.2.

“TACAATTTTACTCATAAACACACATATATATGTTAT [CACACA_site9031]” was tested. Which “gcPBM binding intensity (ln)” value did it give?
Its value is 6.75.

For “AAAATGTATGTAGTCTGTACAAATACTCTATAAATA [XGTACX_site6475]”, which “gcPBM binding intensity (ln)” value is on record?
Its value is 6.54.

With “ACCCAGTGTATTCATAGTACACGCTCATATATTATC [XGTACX_site423]” as the sequence, how does the “gcPBM binding intensity (ln)” value read?
The value was 6.89.

“AGGTTTATAAAAAAAAAAAAAAAAAAAAAAAAAAAA [GTGCAC_negctrl_site113]” was tested. Which “gcPBM binding intensity (ln)” value did it give?
Its value is 6.16.

How did the “gcPBM binding intensity (ln)” value turn out when “CACAAAGGTCTGAAATTTTAGGGGTGCCTGGGACTA [CACACA_negctrl_site681]” was run?
Its value is 5.7.

How did the “gcPBM binding intensity (ln)” value turn out when “AATATTTAAAACATATGTACTGAAAAACAATTGGAC [XGTACX_site6360]” was run?
Its value is 7.02.

How did the “gcPBM binding intensity (ln)” value turn out when “ATTTTTTTATTTTTGTGTACTTATAAGAATATTAAT [XGTACX_site4850]” was run?
The value was 6.81.

With “AATGAATATATTTATTGTACATATATGAATATTGCA [XGTACX_site8689]” as the sequence, how does the “gcPBM binding intensity (ln)” value read?
Its value is 6.62.

Which “gcPBM binding intensity (ln)” value does the source give for “AAAAAAAAAAAAAAAAGTACAAAAAGGAGAAAGATA [XGTACX_site7862]” here?
Its value is 6.47.

Which “gcPBM binding intensity (ln)” value does the source give for “TATTTTTTATGATTAACACACACACTAATAAAAAAA [CACACA_site9370]” here?
The value was 7.1.

Which “gcPBM binding intensity (ln)” value does the source give for “TATATATATATATATAGTACGCACACATAGTTGCAA [XGTACX_site5875]” here?
The value was 9.48.

With “ATTCTTACTAATATCGCACACACATATGTAGACGGG [CACACA_site88]” as the sequence, how does the “gcPBM binding intensity (ln)” value read?
The value was 7.4.

With “ATTTTAAATTTATCTGTGCACAGTATTATATAAGCA [GTGCAC_site9806]” as the sequence, how does the “gcPBM binding intensity (ln)” value read?
Its value is 10.8.

With “TATGTTCCTTTTTGTTGTACTGAAAAATTATGTTCA [XGTACX_site3981]” as the sequence, how does the “gcPBM binding intensity (ln)” value read?
The value was 6.61.

Which “gcPBM binding intensity (ln)” value does the source give for “ATAATATAAATTAATTTACACACTAATAAATATATA [CACACA_site9259]” here?
Its value is 6.76.

“TCATAAAAGATTAAGTGTACATGTGCTACTCTTATA [XGTACX_site6255]” was tested. Which “gcPBM binding intensity (ln)” value did it give?
The value was 6.26.

“ACAAGATAATAGAGAAGTACTAATAAACATACACAA [XGTACX_site6617]” was tested. Which “gcPBM binding intensity (ln)” value did it give?
Its value is 6.9.

“AATATAAAATCAAGAAATTAAAAAAAAACAGAAAAC [CACACA_negctrl_site1004]” was tested. Which “gcPBM binding intensity (ln)” value did it give?
Its value is 7.07.

With “TATATATATATATGTGCACACCAATTGTATGTAATA [CACACA_site3888]” as the sequence, how does the “gcPBM binding intensity (ln)” value read?
Its value is 10.5.

For “AAAACATATTTTAAAAGTACTTGAAAAAAAATTTTC [XGTACX_site3940]”, which “gcPBM binding intensity (ln)” value is on record?
The value was 6.07.

For “AAACCAAAAATAACACGTACAAAAATAAAAAGTATA [XGTACX_site4261]”, which “gcPBM binding intensity (ln)” value is on record?
Its value is 6.9.

Which “gcPBM binding intensity (ln)” value does the source give for “GAAAAAAAAAGTTAAGCACACACATGAATAAATAAT [CACACA_site8179]” here?
Its value is 7.16.

Which “gcPBM binding intensity (ln)” value does the source give for “TTTTGATGCTTTAAATGTACAAGGGTTCTTATGAAA [XGTACX_site831]” here?
Its value is 6.53.

“GAGAGAGAAATATGCACACATAAGGGAAATAAATAA [CACACA_site1153]” was tested. Which “gcPBM binding intensity (ln)” value did it give?
The value was 9.34.

— the supplement of paper PMC11417369
